From the supplement of paper PMC3724861
This is one part of the list.

Tested on: T1, Caupolican (Caup) homeodomain DNA-binding domain
T1 sequence: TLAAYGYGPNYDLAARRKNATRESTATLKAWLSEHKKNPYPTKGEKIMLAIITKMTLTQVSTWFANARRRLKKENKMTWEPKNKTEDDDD
Experiment: PBM E-score (8-mer, recovered from the published 9-mer minima) (E-score (dimensionless, -0.5 to 0.5)); Drosophila protein; higher = stronger relative binding preference, active = 0.31 or more
How it was run: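 Caup's homeodomain DNA-binding domain (residues 214-303) was produced by in vitro transcription and translation and applied at 100 nM to custom-designed protein binding microarrays. Each value is an enrichment score giving relative binding preference for a short DNA word; higher means stronger. Published 9-mer scores were the minimum of their two constituent 8-mer scores, and the 8-mer values were recovered from those minima. A cutoff of 0.31 marks candidate binding sequences.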

Sequence	PBM E-score
CAGAATTC	inactive: 0.0181
CCCGATCA	inactive: -0.123
AACCCACA	≥ 0.0436
AAGAAGAC	inactive: 0.108
AACATGGA	active: 0.325
GACCTGGC	inactive: -0.199
GATGTGCC	inactive: -0.0456
GGGATAGA	inactive: -0.0332
CCGATAGC	inactive: -0.121
AGGAGTAT	inactive: 0.00187
CGGCCCTC	inactive: -0.331
GGGATCAC	inactive: -0.108
AGTAACGG	inactive: 0.0157
CCCGACGC	inactive: -0.195
ATCTTCTG	inactive: -0.0212
CGCAGACC	inactive: -0.224
AGATAGCC	inactive: -0.118
GCTAGCAC	inactive: -0.0674
TACCCATA	inactive: 0.0137
ACAATCGG	inactive: 0.151
GCATTGAC	inactive: 0.0357
CACAGGAA	inactive: 0.106
CATCCATA	inactive: 0.117
CCTCCGCA	inactive: -0.12
GGGTGTGA	inactive: -0.0838

Sequence	PBM E-score
GAGCTTCC	inactive: -0.101
AATCTCAA	inactive: 0.0115
ACTTAGCA	inactive: 0.00821
CCACCTCA	inactive: -0.0372
GGTGTTAC	inactive: 0.247
AACACGAC	active: 0.321
GCACTCGC	inactive: -0.139
AAGTGACA	inactive: 0.241
GCAGCGGA	inactive: -0.122
ATGCTGGA	inactive: 0.0168
AGACAAAA	inactive: 0.0648
CACCGCAA	inactive: -0.0367
GCTCCTCC	inactive: -0.252
CAGCCTCA	inactive: -0.145
ACTTTTTC	inactive: -0.00476
AAAATAGC	inactive: -0.0429
AGCAAACT	inactive: 0.0814
ACGGACAA	inactive: 0.248
AGTAACTG	inactive: 0.138
CGATCGCG	inactive: -0.0834
CGTGTTGC	inactive: 0.11
GAGGCACC	inactive: -0.288
CCGCTACG	inactive: -0.273
CGGTTCTC	inactive: -0.0678
TAATGACA	active: 0.331

Sequence	PBM E-score
ACATCCGA	inactive: 0.162
ACACAATG	inactive: 0.273
AAGACGCG	inactive: -0.096
CAAGGGGC	inactive: -0.105
CTGGGCAA	inactive: -0.111
CAATTTAA	inactive: 0.149
ACTGGTAG	inactive: 0.124
CACTTATC	inactive: 0.118
CCACGTCC	inactive: -0.111
ATATTCAC	inactive: 0.0912
GGCGTACA	inactive: 0.171
ACGACTTC	inactive: 0.0231
ACTGCATG	inactive: 0.129
TCAGTTAA	inactive: 0.0667
TGGAGACA	inactive: 0.073
GTCGGACA	inactive: 0.177
CACACATC	inactive: 0.064
CAAGCAAA	inactive: 0.13
CCATCTGA	inactive: 0.0541
TAAGCTTA	inactive: 0.0694
TTCAAAAA	inactive: 0.0144
CCAGTGTA	inactive: 0.115
GCTTTAGA	inactive: -0.0862
AATAGCCT	inactive: -0.0311
ACAGCATG	inactive: 0.241

Sequence	PBM E-score
GGCTGTTA	inactive: 0.0722
GTAGAACA	inactive: 0.149
GGCGACCA	inactive: -0.135
CACACAAG	inactive: 0.152
GCTTTCTA	inactive: 0.00474
CGTCGTTA	inactive: -0.0604
AACTAATT	inactive: 0.166
CGGGACAC	inactive: 0.0745
CAATGTTA	inactive: 0.269
TATACATA	active: 0.326
CGAAGCAC	inactive: -0.0222
ACAGCACT	inactive: 0.0954
ACCTCGCC	inactive: -0.212
AAAACTGG	inactive: -0.0691
AATTCCCG	inactive: 0.0125
AATGATGG	inactive: 0.0447
CAGAACTC	inactive: -0.0352
AGGGACTA	≥ -0.0163
ATGGTGAC	inactive: 0.116
ACATACAC	active: 0.352
AGGTATCC	inactive: 0.0495
GATAACAC	inactive: 0.25
CAAGAATG	inactive: 0.00113
ATCAGGGC	inactive: -0.0924
CGTGAAAA	inactive: 0.0737

Sequence	PBM E-score
CCCGGAGA	inactive: -0.134
GCTGACGA	inactive: 0.0114
GCGTGCGA	inactive: -0.153
GTGCTGCA	inactive: 0.00845
GGAGGAAA	inactive: -0.127
CGATAGGC	inactive: -0.0798
CTTCATCA	inactive: 0.0127
ACTGGGGG	inactive: -0.327
ATAAAGCC	inactive: -0.137
GTTCGAGA	inactive: 0.0999
AATTGCGG	inactive: -0.0675
CACAAGGA	inactive: 0.109
CTATTCTA	inactive: 0.0511
GCCGTCAC	inactive: -0.11
AGAATATG	inactive: 0.186
GCGACGCC	inactive: -0.209
CGGGTGAC	inactive: -0.151
CAGTAGAA	inactive: -0.072
AACTTCCT	inactive: 0.0238
CTGAGCAG	inactive: -0.0117
CTTACAAC	active: 0.333
GATCCAAC	inactive: 0.0067
CGTTTACC	inactive: -0.0749
GTAGTAAC	inactive: 0.196
CCCTATAG	inactive: -0.0581

Sequence	PBM E-score
AACGCCGC	inactive: -0.16
AAACTCCT	inactive: -0.0174
AATATAGA	inactive: 0.138
CCGCAAGA	inactive: -0.207
AGATCATA	inactive: 0.138
ACAGAAAA	inactive: 0.0795
GACCTTGC	inactive: -0.12
GCATAGCA	inactive: 0.074
AAGTTTAT	inactive: 0.163
AGGTGCAC	inactive: -0.0575
GTATCCCA	inactive: 0.0287
GGGGTCTA	inactive: -0.125
CACCCATG	inactive: -0.0467
CACTACTA	inactive: 0.0827
ATTCGCAA	inactive: 0.0683
CATTTAAG	inactive: 0.0622
CGTAGCTC	inactive: 0.0259
AAGAAGGC	inactive: -0.138
CGAATGAC	inactive: 0.167
GTAAAGAA	inactive: 0.089
CATTATAG	inactive: 0.0171
GCAGTTAC	inactive: 0.126
ACCGTTAC	inactive: 0.106
GGGAATTA	inactive: 0.0659
GACGCCTC	inactive: -0.111

Sequence	PBM E-score
CACTCTAA	inactive: 0.0144
ATACGAAT	≥ 0.176
CCCACGCC	inactive: -0.286
ATCTCTCG	inactive: 0.0246
GTTACAGA	inactive: 0.172
CCTCATCA	inactive: 0.0567
TCGATTCA	inactive: 0.107
GACGGCAA	inactive: -0.0543
CGCAAGCC	inactive: -0.115
ACTTTCCT	inactive: -0.143
ATGACTTC	inactive: 0.126
TATGCGCA	inactive: -0.0233
AAGGTAAG	inactive: 0.00616
ACGCCTGA	≥ 0.00152
GTGACTTA	inactive: 0.104
CATTTGGC	inactive: -0.102
GGCAGGGA	inactive: -0.0883
CAATCGCG	inactive: -0.0683
ACGCGACC	inactive: -0.119
AGTAAGGA	inactive: 0.0816
TAACCCAA	inactive: 0.0279
CGTCGAGC	inactive: -0.0905
TCATGGCA	inactive: -0.0694
GGCATACC	inactive: -0.123
ATATGAGC	inactive: 0.0536

Sequence	PBM E-score
CAATAAGC	inactive: -0.0471
AGTAGTAC	inactive: 0.29
CCTGCGTA	inactive: -0.0458
AACTGTTA	inactive: 0.133
AACCGAGT	inactive: -0.0739
CAAAGCTG	inactive: -0.0401
AAGGTTAT	inactive: -0.0128
GAGTGGCC	inactive: -0.132
AATGGTTC	inactive: 0.114
ACACGTCG	inactive: 0.212
GGCAAAGA	inactive: -0.0555
GCATCGCC	inactive: -0.154
GACCGAAC	inactive: -0.0312
ATGAGACA	inactive: 0.189
AGTGCGTG	inactive: -0.0479
TTACTGAA	inactive: 0.0619
CCGTATGA	inactive: 0.0605
GTACACGA	active: 0.427
ATAGATAC	inactive: 0.135
GACATTCA	inactive: 0.124
CGCGCTGA	inactive: -0.115
AGCAGTCC	inactive: -0.125
CCGGTTTC	inactive: -0.117
GAAAAAAA	≥ 0.0868
AGGCCCTG	inactive: -0.09

Sequence	PBM E-score
GACAAATC	inactive: 0.189
CTAAGACA	inactive: 0.176
CGCCTTAC	inactive: -0.0507
GAAAAGAC	inactive: 0.042
CAAAAGGG	inactive: -0.0805
TCTGCTCA	inactive: -0.0318
CAATCGAG	inactive: -0.0637
GCGCTGCC	inactive: -0.257
GAAATGCA	inactive: 0.0706
CTGCTATA	inactive: -0.00397
GCGTGACA	inactive: 0.211
CCTAAGCA	inactive: -0.103
CATTCCCC	inactive: -0.142
CGGTTTTA	inactive: 0.0649
ACCATGTC	active: 0.408
CGCTGGAA	inactive: -0.167
GGAAGTAA	inactive: 0.0849
CGACGGCA	inactive: -0.0558
AAGCTCTA	inactive: -0.0108
ATCACGGG	inactive: -0.141
CCGAATTC	inactive: -0.0114
GGTAATTA	inactive: 0.125
GACATGAC	active: 0.394
AGATAACG	inactive: 0.101
